Results on 73 sequences are retold here after article PMC10726135.

This is one part of the list. At the low end of the ranking the order means little. Measured with an extract: partners may take part in the binding.

The target in the assay is T1, HNF4alpha8 (COS-7 nuclear extract) (UniProt P41235-5).
T1 sequence: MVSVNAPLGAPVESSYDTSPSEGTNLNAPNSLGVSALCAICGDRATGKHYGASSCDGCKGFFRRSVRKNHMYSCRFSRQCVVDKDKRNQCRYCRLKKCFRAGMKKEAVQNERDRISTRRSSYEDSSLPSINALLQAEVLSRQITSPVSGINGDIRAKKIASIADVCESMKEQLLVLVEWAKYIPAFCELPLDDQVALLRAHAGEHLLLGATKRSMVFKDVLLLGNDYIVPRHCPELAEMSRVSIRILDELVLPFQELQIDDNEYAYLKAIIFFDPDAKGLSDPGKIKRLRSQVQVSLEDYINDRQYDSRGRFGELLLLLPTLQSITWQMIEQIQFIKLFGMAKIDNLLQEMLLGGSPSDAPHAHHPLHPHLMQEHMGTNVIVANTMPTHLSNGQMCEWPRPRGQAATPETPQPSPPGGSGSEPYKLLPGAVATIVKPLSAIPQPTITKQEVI
The assay is described as follows: protein-binding microarray. The conditions noted are these: COS-7 nuclear extract on double-stranded Agilent 4x180k PBM; binding buffer, salt, pH and temperature not given; high values mean tight binding; double strand, one strand shown; sequences stand for … in …GCCTAGGGAGATTAGAGTATCGGTCGA
For the sequence GAGAATCCACCTGCCTGCTTGGCCTCTCCA, the binding signal (log2 normalized intensity) is -1.28. As for TTTCACAAGTTTAGCCAAGCAAACAAGTTC, the binding signal (log2 normalized intensity) was -1.38. The figure for TGAATGGACTCTGCCCTTAGCAGTGGGAGA is 4.92; for TCTGCCGCTGCGCCACAGCACCACCTGCTG it is -1.27.

On to TTAGTCCCAGTATGGTCTCAGTAATGACAT, for which the binding signal (log2 normalized intensity) is 1.06. The figure for AAAGCAACAAAAACCAAATCACAATTTTCA is -1.43; for CTTACATGGGTTAGGAGGATGACAAAGAGC it is -0.166. The figure for ATGAAGATATATTCCTTCAGGAAGGCCTGT is 0.756; for GTATGTTCTTAAGATAAGGACTGTTGGACC it is 4.24. Take TTTTTGTGTGTGTGTCAGAGACCCAGAAAA: the binding signal (log2 normalized intensity) was determined as 1.54.

Turning to TGGCTAATAGATGGCGCAGCGGGTCAATTA, the binding signal (log2 normalized intensity) turned out to be 2.6. Turning to AGCTGGGCCTGTGCTGGGGACAAAAGCTGA, the binding signal (log2 normalized intensity) was -1.18.

Turning to AAGTTAACTTTGTAACTAACAACTGACCTT, the binding signal (log2 normalized intensity) stood at 4.32.

ATAAGCCCTGAGTAGTTCTTCTGGTTAGTT: the binding signal (log2 normalized intensity) amounted to 0.74. The figure for CAAACCAAAGAGAAATGGTGTGGACAGCAG is -1.31. The figure for TGTTAGCAGAAACCATCTGGCTTGGCCCCC is 4.14. Turning to GGTAGCCTGGGTTAAAGTCCGTTACAGACA, the binding signal (log2 normalized intensity) came out at 4.18.

For GTGGGGCAGAAAGGGCATGGATTTAGATAA, the binding signal (log2 normalized intensity) was -0.823.

TACATAGAGGGGGTCTAGGTTGGAGGAGCT: the binding signal (log2 normalized intensity) was -0.892. The figure for ATGGGCACCTCGTCCAGGTGTCTTCAGGCT is -1.31.

Turning to AGTGGAAGGTATGGAGCTAAACAATTAAAG, the binding signal (log2 normalized intensity) is -1.29.

Regarding AATTGTGGCTTGTGTAGTTATCCAGTAACA, the binding signal (log2 normalized intensity) amounted to 0.907. The figure for AGGCAGGAGTTAACTAACAAAAGCAGAGGA is -1.37; for ACTCCTCTATCAGTACAAATAAACCTTTGA it is 4.33; for TGTCCCCCAGGTCCAGCCTTTGGGCAGGGG it is 2.55. The figure for GCTGCCTCCTATCCTCTGATCCCCAGGTCA is 2.87. The figure for TGTCATCTCTGGCTAACAGGTCAGGGGCTC is 0.515; for ACTCAGTGGGGTGTCTGTGTGCCTCAGATT it is 1.01; for TGAACCTTCTTCTTGCAGTCCACATTTCTG it is 1.16. On to GGTGGACTTTGTAGCTCAAACAGTCTAAAA, for which the binding signal (log2 normalized intensity) was 2.85. ATAAGAACGCTAGACACTGGGGACTAGTAG: the binding signal (log2 normalized intensity) is -1.19. On to CTTGGCCCCCGGACCCAAAGTAAACAAAGA, for which the binding signal (log2 normalized intensity) was 3.96. The figure for TCAGTGCAATCACGCCTCAAATGAGCTTTT is -0.634. The figure for GCCTTGCTGCGGATCAAAGGAGCTGGGCCT is -1.33; for GTTAAGTCATTGATGAAACTCCTTCCCTTT it is 0.746. The figure for CCCACATCCTGTCAGACCAAGGCTGCTTAA is -1.29; for GTAAACATAGCAGAAGACCCTTGGCCTCTA it is 4.15. With GGGCTGGCTCAGGACAGGTGAGCCCGGCAG, the binding signal (log2 normalized intensity) is -1.22. The figure for TACTTCCTTCACTCTGGGGCAATAACCCTA is 0.964; for GCTCAAAATAGGCAAGACTGCCACCTACTG it is -1.44; for CATCTGAGACTAACTGCATTTTGGAGATAA it is -0.198. The figure for AAAGTGGAAGAATGGGAAATTCCATCCTAG is -1.24; for TCAAAATATAAGGTCCAACTGACATCTGGA it is 1.18; for GCTTTAAGAGGAATGCTTTGAGCCAGAATC it is -1.07. The figure for TTGAGTGACCTTGGGCCAGTCGCTTAACCT is 2.28. Consider CTCTCGTCACCTCCACCCACCCGTGCATCA, for which the binding signal (log2 normalized intensity) worked out at 4.48. The figure for GTACTTCAACCAGGTTCTCTTTACTGAACG is 1.54; for TGCAGTGTGTCTCCAGGAGCAATCATCGCA it is -1.11. The figure for TTCTGAGTTGCATGAATTTATCTAAGTAGA is -0.142; for GCAGGAATGCTGAACAATTGATTTATAGCC it is -0.997.

On to CCCGTGTAGACACTCATCCCTTGCACTGCT, for which the binding signal (log2 normalized intensity) was -1.08.

Take TCGGAATGTCTGGGCAAAGGGGAGGTTATC: the binding signal (log2 normalized intensity) was -0.858.

For the sequence CTGTTTGGTATCTACTCGGCAAAACGGAGA, the binding signal (log2 normalized intensity) was -0.739. The figure for AGGTCAGCTTGTCCAGAGTAGGCTTGCAAG is -0.885. The figure for CTCAAGGCCTTGGCTTGGAACTGACATGCT is -1.23; for AAATCTTACCTAAGGAAGTTAACCCCATCA it is 3.07; for CATGAAGCAATTCTGAGCCCAACCTCCCCA it is 4.12.

For TCTTCAATACAGAGTCCAAATTCCTTGGTA, the binding signal (log2 normalized intensity) stood at 3.67. The figure for TCACCAAACTTCACAATGGGCCCCAGTAAA is -1.29.

As to ATTTTCCCACTTGTATGTCCAAGGGTCACT, the binding signal (log2 normalized intensity) is 5.52.

Take GCAAAGTACAAAGTACAGAGATGGCACAGA: the binding signal (log2 normalized intensity) came to 3.53. The figure for CTCAGCGGGAGGCAAGATAAGGGTAATCAC is -1.39; for TCACTTTTATCACCATCTTGGTTTTGGTGG it is 2.15.

For the sequence TGCTAAGAATGCGAACCATTTCCCATGGGA, the binding signal (log2 normalized intensity) was -1.38. The figure for ATCTGTATCAGCCTGTGACAAAGTCCATCT is 5.65; for TGTGGCAAAGGTGAATGACCCCTCCCCTCC it is 5.93.

Take GGAGTGTCTTTCAGGAAGGAATAAAAGGCT: the binding signal (log2 normalized intensity) was -1.18. CCTCCTTAGGAAAGAGACATCTGGGAACAA: the binding signal (log2 normalized intensity) was -1.34. The figure for GACAGTCTCCAAGGTTATTATATTGTGGGT is 1.61; for TTTCCCTAGCTTATATCCCCTGCCTGGGTC it is 1.83; for CTGAACATAATTGCAAAATCCTTAGCAAAT it is -1.25.

Consider TATGAGATTCCCAGAGAGCTCCCCAAAGGG, for which the binding signal (log2 normalized intensity) was -1.37. The figure for AAATGGAGTGGCCTTTAGAACCGGGGAGAT is 0.895.
